Test results from paper PMC4336329 (PLoS ONE, 2015).
In all, about 310,000 compounds went through this assay and about 2,200 (0.71%) showed an effect of 50% or more. Effects have a minus sign here. This is one part of the list. Where a SMILES comes first, the peptide text is derived from it. [ ]: non-standard residue; d: D form. The star is where a group is joined. ξ: configuration not given here. Boc = CC(C)(C)OC(=O)*; ξP = O=C(O)C1CCCN1

Target: human ether-à-go-go-related gene (hERG) potassium channel (human, UniProt Q12809)
Test: primary screen, population patch clamp on CHO cells stably expressing hERG

human ether-à-go-go-related gene (hERG) potassium channel, sequence (Q12809 whole entry, looked up): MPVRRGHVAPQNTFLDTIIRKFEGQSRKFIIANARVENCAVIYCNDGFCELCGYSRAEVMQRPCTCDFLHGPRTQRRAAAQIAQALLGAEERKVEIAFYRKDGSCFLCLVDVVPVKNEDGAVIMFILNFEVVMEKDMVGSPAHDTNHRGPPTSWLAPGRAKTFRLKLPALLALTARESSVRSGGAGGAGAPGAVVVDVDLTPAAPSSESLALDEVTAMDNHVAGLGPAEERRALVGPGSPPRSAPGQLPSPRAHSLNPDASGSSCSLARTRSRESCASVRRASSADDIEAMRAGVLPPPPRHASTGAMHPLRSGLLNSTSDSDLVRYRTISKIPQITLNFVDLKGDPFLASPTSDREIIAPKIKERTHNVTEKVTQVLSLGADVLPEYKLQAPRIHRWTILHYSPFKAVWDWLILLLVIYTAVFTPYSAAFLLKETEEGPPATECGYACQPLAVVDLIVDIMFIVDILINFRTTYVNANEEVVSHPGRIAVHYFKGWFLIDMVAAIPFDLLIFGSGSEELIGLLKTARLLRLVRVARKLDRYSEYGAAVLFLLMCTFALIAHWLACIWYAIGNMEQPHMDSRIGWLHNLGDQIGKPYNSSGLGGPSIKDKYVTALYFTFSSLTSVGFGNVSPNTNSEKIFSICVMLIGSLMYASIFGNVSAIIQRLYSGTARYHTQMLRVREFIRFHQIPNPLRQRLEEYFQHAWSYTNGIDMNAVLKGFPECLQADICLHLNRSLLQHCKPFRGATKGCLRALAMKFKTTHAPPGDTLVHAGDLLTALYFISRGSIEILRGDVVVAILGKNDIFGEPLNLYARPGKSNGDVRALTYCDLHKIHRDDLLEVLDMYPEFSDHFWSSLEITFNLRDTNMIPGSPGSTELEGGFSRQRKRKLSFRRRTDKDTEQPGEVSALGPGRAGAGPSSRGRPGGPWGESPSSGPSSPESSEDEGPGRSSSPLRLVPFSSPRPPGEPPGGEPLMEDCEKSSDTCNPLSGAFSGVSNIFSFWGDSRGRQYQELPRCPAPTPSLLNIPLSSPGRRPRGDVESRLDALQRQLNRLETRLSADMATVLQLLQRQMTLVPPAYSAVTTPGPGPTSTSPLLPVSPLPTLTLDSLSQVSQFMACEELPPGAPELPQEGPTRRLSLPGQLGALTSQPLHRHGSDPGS

Going from Cc1cccc(C)c1NC(=S)N(c1ccccc1)C(C)C to COc1ccc(NC(=O)CN2C(=O)NC(C)(c3ccccc3)C2=O)cc1Cl (stereo not drawn), the “hERG current change (%, negative = inhibition) at 1uM” value falls from 9.36% to -2.24%.

Going from CSc1nsc(SC)c1NC(=O)OC1CCCCC1 to Cl.O=C(COc1ccc(Br)cc1CNC1CCCC1)Nc1ccccc1, the “hERG current change (%, negative = inhibition) at 1uM” value falls from 1.08% to -28.2%.

Going from CCOC(=O)c1ccc(C(=O)OCC)c(NC(=S)Nc2ccc([N+](=O)[O-])cc2OC)c1 to CCOc1ccccc1C(=O)Nc1ccsc1C(=O)OC, the “hERG current change (%, negative = inhibition) at 1uM” value rises from 4.02% to 11.8%.

Compared with Cn1cccc1Cc1nnc(SCC(=O)NCCc2ccccc2)n1C, Cc1nnc(SCC(=O)Nc2sccc2C(N)=O)n1Cc1ccccc1 is lower in “hERG current change (%, negative = inhibition) at 1uM” value: 7.58% for the first, -6.83% for the second.

Going from O=C(Nc1cccc(F)c1)c1ccc(-c2ccccc2Cl)o1 to O=C(NCc1ccc(Cl)cc1)Nc1ccc(F)cc1, the “hERG current change (%, negative = inhibition) at 1uM” value rises from -6.29% to 16.1%.

First: Cc1nonc1C1CCCN1Cc1nc(-c2ccc(F)cc2F)oc1C (stereo not drawn)
Second: Cc1[nH]c2ccccc2c1C(=O)CN1CCCC(C)C1 (stereo not drawn)
The “hERG current change (%, negative = inhibition) at 1uM” value of the first is lower: 10.8% for the first, 16.3% for the second.

First: Cc1cccc(N2C(=O)CN(Cc3sccc3C)C2=S)c1
Second: CC(=O)Nc1ccc(NC(=O)Nc2ccc(C)cc2C)cc1
The “hERG current change (%, negative = inhibition) at 1uM” value of the first is lower: 8.18% for the first, 10.9% for the second.

Going from O=C(CCCC(=O)OCC(Cl)=C(Cl)Cl)Nc1ccc(F)cc1 to CC(C(=O)NC1CCCC1)N(C(=O)CS(=O)CC(=O)Nc1ccc(F)cc1)c1ccc2c(c1)OCCO2 (stereo not drawn), the “hERG current change (%, negative = inhibition) at 1uM” value rises from 10.3% to 13.8%.

First: CC(=O)c1cnc2cc(C)nn2c1C
Second: CCOC(=O)/C(C#N)=C/c1cccc(C)c1
The “hERG current change (%, negative = inhibition) at 1uM” value of the first is lower: 5.81% for the first, 10.9% for the second.

First: CCN(C(=O)CN1CCN(Cc2ccccc2)CC1)c1c(N)n(Cc2ccccc2)c(=O)[nH]c1=O
Second: Cn1c(=O)[nH]c(=O)c2c1nc(CN1CCN(c3cccc(Cl)c3)CC1)n2Cc1ccccc1Cl
The “hERG current change (%, negative = inhibition) at 1uM” value of the first is higher: 23.3% for the first, 14.3% for the second.

Going from CCN(CC)c1ccc(CNc2ccc3c(c2)ncn3CC)cc1 to COc1ccc(NC(=O)c2cccc([N+](=O)[O-])c2)cc1, the “hERG current change (%, negative = inhibition) at 1uM” value rises from 10.9% to 16.6%.

Going from COC(=O)[C@@H](c1ccccc1)N(C)S(=O)(=O)c1cccc(S(=O)(=O)N(C)[C@@H](C(=O)OC)c2ccccc2)c1 to O=C(NNC(=O)c1cc(-c2ccncc2)nc2ccccc12)c1ccccc1F, the “hERG current change (%, negative = inhibition) at 1uM” value falls from 10.1% to 5.8%.

Compared with Cc1cc(-c2n[nH]c(=S)n2/N=C/c2cccc([N+](=O)[O-])c2)n[nH]1, COc1cccc(CNC(=O)CSc2nnc3c(n2)[nH]c2ccccc23)c1 is lower in “hERG current change (%, negative = inhibition) at 1uM” value: 12.4% for the first, 5.78% for the second.

Compared with O=C(Cc1ccc(Cl)cc1)N1CCc2ccccc2C1, c1ccc(COc2ccccc2CNC2CCCC2)cc1 is lower in “hERG current change (%, negative = inhibition) at 1uM” value: 21.7% for the first, 11.2% for the second.

First: COC(=O)CNC(=O)C1CCCN1C(=O)OC(C)(C)C (stereo not drawn) (Boc-[ξP]-Gly-OMe)
Second: CCN(CC(=O)NC(C)(C)C)C(=O)c1ccccc1SCC(=O)NC1CCCCCCC1
The “hERG current change (%, negative = inhibition) at 1uM” value of the first is higher: 6.64% for the first, 4.18% for the second.

Going from CC(C)CNC(=O)COC(=O)c1c2c(nc3ccccc13)CCC2 to O=C(COC(=O)c1c2c(nc3ccccc13)CCCC2)Nc1ccc2c(c1)OCO2, the “hERG current change (%, negative = inhibition) at 1uM” value rises from 10.2% to 13.9%.

Compared with CC(C)N1CCC(N2CCN(C3CCCCCC3)CC2CCO)CC1 (stereo not drawn), O=C(CN1CCCCC1)NNc1nc(-c2ccccc2)c2cc(Br)ccc2n1 is lower in “hERG current change (%, negative = inhibition) at 1uM” value: 19.1% for the first, 7.14% for the second.

Compared with Cl.NCCSC1CC(=O)N(Cc2ccc(F)cc2)C1=O (stereo not drawn), COC(=O)C1(Cc2ccccc2)NC(c2ccc(F)cc2)C2C(=O)N(C)C(=O)C21 (stereo not drawn) is higher in “hERG current change (%, negative = inhibition) at 1uM” value: -5.94% for the first, 4.31% for the second.

First: FC(F)(F)Oc1ccc(NC2=NCCCS2)cc1
Second: O=C(Nc1ccc(S(=O)(=O)Nc2nccs2)cc1)c1cccc(S(=O)(=O)N2CCOCC2)c1
The “hERG current change (%, negative = inhibition) at 1uM” value of the first is higher: 10.6% for the first, 10.5% for the second.

First: NNC(=O)CS(=O)(=O)CS(=O)(=O)CC(=O)NN
Second: Cc1cc(C(=O)CCl)c(C)n1-c1cccc(S(=O)(=O)N2CCOCC2)c1
The “hERG current change (%, negative = inhibition) at 1uM” value of the first is higher: 14.2% for the first, -7.11% for the second.

Going from CCN(CC)CC(O)CN1C(=O)NC(C)(C)C1=O (stereo not drawn) to CCCn1nnnc1SCC(=O)c1ccc2c(c1)OCCO2, the “hERG current change (%, negative = inhibition) at 1uM” value falls from 13% to 0.126%.

Compared with Cc1cc(CNC(=O)c2ccc3c(c2)OCO3)c2ccccc2n1, Nc1c(C(=O)O)sc2nc(-c3ccccc3)cc(-c3ccc(F)cc3)c12 is higher in “hERG current change (%, negative = inhibition) at 1uM” value: 5.77% for the first, 9.86% for the second.

For O=C(Nc1ccc(-n2cnnn2)cc1)c1cn2ccccc2n1, the “hERG current change (%, negative = inhibition) at 1uM” value was 16.1%.
